# Test results reported in PubChem BioAssay AID894 (National Center for Advancing Translational Sciences (NCATS), 2007).
# Hit rate of the full screen: of about 150,000 compounds, about 6,500 (4.3%) were called active. Inconclusive means that the source gave no clear call. Such entries were picked first, then a sample of the others. Calls come from the whole dose curve; as a rule, active = well fitted inhibition curve with a large enough effect (not every such curve was filed as active); inconclusive = small, poorly fitted or top-dose-only effect, or another doubt; inactive = no such curve, though single readings can be large or run the other way. Potencies of inconclusive entries are left out as doubtful fits.
# Target: 15-hydroxyprostaglandin dehydrogenase [NAD(+)] (Homo sapiens) (UniProt P15428)
# UniProt P15428, sequence (P15428 whole entry, looked up): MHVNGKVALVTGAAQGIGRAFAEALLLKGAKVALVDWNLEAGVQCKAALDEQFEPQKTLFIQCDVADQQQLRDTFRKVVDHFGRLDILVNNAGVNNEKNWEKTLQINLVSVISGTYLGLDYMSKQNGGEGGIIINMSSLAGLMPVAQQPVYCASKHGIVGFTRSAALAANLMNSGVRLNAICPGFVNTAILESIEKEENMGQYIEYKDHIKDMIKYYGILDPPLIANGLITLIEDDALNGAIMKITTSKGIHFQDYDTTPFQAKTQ
# Experiment: qHTS Assay for Inhibitors of HPGD (15-Hydroxyprostaglandin Dehydrogenase)
# Details: purified HPGD, NADH fluorescence kinetic, PGE2 substrate; activity change, negative = inhibition: hits give low values
# Procedure, shortened: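 NADH formation kinetics: reaction with 30 uM PGE2 and 1 mM NAD+ (final), 20 nM enzyme, Tris-HCl pH 8 with Tween 20, after 15 min compound preincubation at room temperature. Fluorescence change, last versus first of five reads.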
# % is set by controls: 0 for no effect and ±100 for the full control effect; potency is the fitted concentration of half-maximal effect; tags give direction and shape of the fitted curve.
SMILES,Potency,"activity change, negative = inhibition"
c1cncc(-c2nnc(SCc3cccc4ccccc34)o2)c1,active: 25.1 µM,–
COc1cc(/C=C(\C#N)c2nc3ccccc3[nH]2)c([N+](=O)[O-])cc1OCc1ccccc1,"inconclusive [inhibitor, single point]",–
COc1cccc(-c2nnc3n2N=C(c2cc(OC)ccc2OC)CS3)c1,active: 28.2 µM,–
O=C(CS(=O)(=O)c1ccccc1)c1ccc2c(c1)OCCO2,"inconclusive [inhibitor, partial curve]",–
CCCCCCCCS(=O)c1sc2nc(C)cc(C)c2c1N (centres undefined),"inconclusive [inhibitor, full curve]",–
CCN(CC)Cc1c(O)ccc2c(=O)c(Oc3ccccc3OC)coc12,"inconclusive [inhibitor, partial curve]",–
CCOC(=O)c1ccc(-n2c(N)c(C(=O)NCc3ccco3)sc2=S)cc1,active: 28.2 µM,–
O=c1c(-c2ccc(F)cc2)nc2cnc(N3CCOCC3)nc2n1-c1ccccc1,"inconclusive [inhibitor, partial curve]",–
CCn1cc(C(=O)O)c(=O)c2cc(F)c(N3CCN(S(=O)(=O)c4ccc(NC(=O)OC)cc4)CC3)cc21,"inconclusive [inhibitor, partial curve]",–
CCC(C)NC(=S)N(CCc1ccccc1)Cc1cc2cc(OC)c(OC)cc2[nH]c1=O (centres undefined),"inconclusive [inhibitor, partial curve]",–
COc1cccc(-n2nnc3c(=O)n(CC(=O)NCC4CCCO4)cnc32)c1 (centres undefined),active: 15.8 µM,–
CC(=O)[C@@H]1[C@@H]2C(=O)N(Cc3ccccc3)C(=O)[C@@H]2C2c3ccccc3C=CN21 (some centres undefined),"inconclusive [inhibitor, single point]",–
O=C(NCc1cccs1)C1CC(=O)N(c2ccc(F)cc2)C1 (centres undefined),–,inactive: -8.85%
CCCCn1c(CCNC(=O)c2cccs2)nc2ccccc21,"inconclusive [inhibitor, partial curve, poor fit]",–
COc1ccc([C@@H]2CC(=O)c3c(O)cc(O[C@H]4O[C@@H](CO[C@H]5O[C@@H](C)[C@@H](O)[C@@H](O)[C@@H]5O)[C@@H](O)[C@@H](O)[C@@H]4O)cc3O2)cc1O,–,inactive: 1.43%
CCC(=O)Nc1nc2c(OC)ccc(C)c2s1,"inconclusive [inhibitor, partial curve]",–
O=C(Nc1ccc2ccccc2c1)[C@H]1C[C@@H]1[C@H](NP(=O)(c1ccccc1)c1ccccc1)c1ccccc1,–,inactive: -14%
NNc1nc(N)c2c(n1)-c1ccccc1CC21CCCC1,"inconclusive [inhibitor, single point]",–
Cc1ccc2nc(-c3sc4nc(C)cc(C)c4c3N)[nH]c2c1,"inconclusive [inhibitor, partial curve, poor fit]",–
Clc1ccc(-c2nnc3n2CCCCS3)cc1,"inconclusive [inhibitor, single point]",–
CC/C(C)=N\N=C\c1c(O)n(CC)c2cc(C3=NNC(=O)CC3)ccc12,active: 31.6 µM,–
CC(=O)/C(=C\Nc1ccc(OCc2ccccc2)cc1)c1ccccc1,"inconclusive [inhibitor, partial curve]",–

SMILES,Potency,"activity change, negative = inhibition"
O=C(c1ccc(-n2c(SCc3cc(F)ccc3F)nc3ccccc3c2=O)cc1)N1CCOCC1,–,inactive: -11.8%
COCCNc1cc(C)c(C#N)c2nc3ccccc3n12,"inconclusive [inhibitor, partial curve]",–
CCCCCCC(=O)N1CCC(c2nc3c(nnn3Cc3ccccc3Cl)c(=O)[nH]2)CC1,active: 20 µM,–
NS(=O)(=O)c1cccnc1Nc1cccc(Cl)c1,"inconclusive [inhibitor, single point]",–
Cc1cccc(CN(CC(=O)N/N=C/c2cccs2)S(=O)(=O)c2ccc(Cl)cc2)c1,–,inactive: -10.2%
CC(C)CC(NC(=O)CCl)c1ccccc1 (centres undefined),–,inactive: -1.78%
COc1ccc(Cn2c(N)c(S(=O)(=O)c3cccs3)c3nc4ccccc4nc32)cc1,"inconclusive [inhibitor, partial curve]",–
C/C(=N/NC(=O)CNc1ccc(C)cc1)c1ccc(Cl)cc1,–,inactive: -9.38%
Cc1nnc(SCC2=C(C(=O)O)N3C(=O)[C@@H](NC(=O)Cn4cnnn4)[C@@H]3SC2)s1,–,inactive: -8.82%
O=C(NCCN1CCOCC1)c1cccc(Cl)c1,–,inactive: -5.93%
CC1=C(C(=O)Nc2ccc(C)cn2)C(c2cnn(C)c2)C2=C(CCCC2=O)N1 (centres undefined),"inconclusive [inhibitor, partial curve]",–
Cc1c(C(=O)N2CCN(c3ccc(F)cc3)CC2)sc2nc(-c3ccccc3)cn12,–,inactive: -19.6%
COc1ccc(C(=O)/C=C/c2cc(OC)c(O)c(OC)c2)c(F)c1,active: 14.1 µM,–
Cc1ccc(/C(C#N)=C\c2ccc(N3CCOCC3)o2)cc1,"inconclusive [inhibitor, partial curve]",–
O=C(O)CCN1C(=O)/C(=C\c2ccc(-c3nc4ccccc4s3)o2)SC1=S,active: 15.8 µM,–
CCOc1ccc(-c2ccc(/C=C3/C(=N)N4C=CSC4=NC3=O)o2)c([N+](=O)[O-])c1,"inconclusive [inhibitor, partial curve]",–
COCCn1c(=NC(=O)c2cc(-c3cccs3)nc3ccccc23)sc2cc(S(N)(=O)=O)ccc21,"inconclusive [inhibitor, partial curve]",–
COC(=O)c1cc(C)nc(N)c1C#N,"inconclusive [inhibitor, partial curve]",–
C=CCNc1oc(-c2cccs2)nc1C#N,"inconclusive [inhibitor, partial curve]",–
C/C(=N\NC(=O)c1cccc(Br)c1)c1ccc(Br)cc1,–,inactive: -1.98%
Cn1c(SCC(=O)N/N=C/c2ccc([N+](=O)[O-])s2)nnc1-c1ccccc1,–,inactive: -10.3%
Cc1cccc(OCCCC(=O)NCCc2ccccc2)c1,"inconclusive [inhibitor, single point]",–
